Experimental data as given in the supplement of paper PMC12217912.
Some of the results follow. Sequences were assembled here from the parent chain. Inactive controls read about 0.05.

B1: TEV protease; numbered along this chain (parent)
chain: MGESLFKGPRDYNPISSSICHLTNESDGHTTSLYGIGFGPFIITNKHLFRRNNGTLVVQSLHGVFKVKDTTTLQQHLVDGRDMIIIRMPKDFPPFPQKLKFREPQREERICLVTTNFQTKSMSSMVSDTSCTFPSGDGIFWKHWIQTKDGQCGSPLVSTRDGFIVGIHSASNFTNTNNYFTSVPKNFMELLTNQEAQQWVSGWRLNADSVLWGGHKVFMVKPEEPFQPVKEATQL

Variants of: B1
Test: raw area under fraction-flipped curve 0-4 h after induction (AUC4h, not background-subtracted), DNA-recorder readout of cleavage of the substrate (dimensionless); higher = more cleavage of the substrate by the protease variant
Conditions: temperature: 34 °C; time window: 0-4 h after rhamnose induction
Protocol: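 In vivo DNA recorder in E. coli TOP10(DE3) ΔrhaA at 34 °C. Each TEVp single-site mutant (parent TEVp 0) is paired with a single-site variant of the 7-mer TEVs (canonical ENLYFQ|S). The substrate sits between flexible linkers in a Bxb1-sfGFP-TEVs-SsrA fusion, so cleavage stabilises Bxb1 and speeds flipping of a recombination array, read by NGS. The value is the raw area under the fraction-flipped curve over 0-4 h after rhamnose induction (AUC4h), with ≥20 reads per time point. It is not background-subtracted; inactive controls average about 0.047.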
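Note: Bxb1 expression induced with 0.2% (w/v) L-rhamnose at OD600 near 0.5, cultures sampled hourly, flipped fraction per protease–substrate barcode pair counted by paired-end Illumina sequencing.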

Row | Variant | area with substrate ENAYFQS | area with substrate ENEYFQS | area with substrate ENFYFQS | area with substrate ENIYFQS | area with substrate ENNYFQS | area with substrate ENQYFQS | area with substrate ENTYFQS | area with substrate ENVYFQS | area with substrate ENDYFQS | area with substrate ENPYFQS | area with substrate ENCYFQS | area with substrate ENHYFQS | area with substrate ENRYFQS | area with substrate ENSYFQS | area with substrate ENWYFQS | area with substrate ENGYFQS | area with substrate ENKYFQS | area with substrate ENYYFQS | area with substrate ENMYFQS
1 | M83L | 0.0795 | 0.0597 | 0.0495 | 0.109 | 0.0687 | 0.0815 | 0.0575 | 0.0682 | – | – | – | – | – | – | – | – | – | – | –
2 | M83R | 0.0454 | 0.0389 | – | – | – | 0.048 | 0.0489 | – | 0.0477 | 0.0478 | – | – | – | – | – | – | – | – | –
3 | M83E | 0.0546 | – | – | – | 0.0596 | 0.0601 | – | 0.0483 | 0.0637 | 0.052 | 0.0478 | 0.063 | 0.0506 | 0.0527 | 0.0317 | – | – | – | –
4 | G37C | 0.0555 | 0.0803 | – | 0.124 | – | 0.0704 | – | 0.0886 | 0.0677 | – | 0.0663 | – | – | 0.0418 | – | 0.0543 | 0.0547 | 0.0591 | –
5 | K66W | 0.031 | 0.0425 | 0.0569 | – | – | 0.0606 | 0.0618 | – | 0.0343 | – | 0.0547 | 0.064 | 0.0486 | – | – | – | – | 0.0504 | 0.078
6 | K66Y | 0.0691 | 0.0511 | 0.0438 | – | – | 0.0684 | 0.0598 | – | 0.0552 | – | 0.0665 | 0.0449 | 0.05 | 0.0576 | 0.0769 | 0.0667 | 0.0434 | – | –
7 | F92V | 0.0517 | 0.0562 | – | 0.124 | – | 0.0589 | – | – | – | 0.0617 | – | 0.0678 | – | – | – | – | – | – | –
8 | F92N | 0.0629 | – | – | – | 0.0471 | 0.0453 | 0.0548 | 0.0807 | – | 0.0587 | 0.0566 | – | – | 0.0444 | – | 0.0491 | – | 0.0717 | –
9 | K7S | 0.0602 | – | – | – | – | 0.0469 | – | – | – | – | – | – | – | – | – | – | – | – | –
10 | G35S | 0.0537 | – | – | 0.0631 | – | – | – | 0.0473 | 0.0585 | – | – | – | – | – | – | – | – | – | –
11 | G35D | 0.0608 | 0.0495 | – | – | – | 0.0441 | – | – | – | – | – | – | – | 0.0402 | – | 0.0292 | 0.0459 | 0.0402 | –
12 | G35V | 0.0544 | – | 0.0476 | – | – | 0.0407 | – | – | – | – | – | 0.0603 | – | 0.0392 | 0.0658 | 0.0513 | – | – | 0.041
13 | K90A | 0.0696 | 0.0617 | – | – | – | – | 0.0428 | – | – | – | – | 0.0707 | – | – | – | – | – | – | –
14 | V78E | 0.0547 | 0.0557 | – | 0.0882 | 0.0532 | 0.0618 | 0.0636 | 0.0608 | 0.0586 | 0.0609 | 0.0564 | 0.0474 | – | 0.0571 | – | 0.0558 | 0.0575 | 0.067 | 0.062
15 | V78N | 0.0596 | – | – | 0.0784 | 0.0486 | 0.0483 | – | 0.0597 | – | 0.0331 | 0.0503 | 0.0654 | 0.0089 | 0.0571 | – | 0.0445 | 0.059 | – | 0.0601
16 | V78D | 0.0572 | 0.0665 | 0.0541 | 0.0672 | – | 0.0558 | – | 0.0586 | 0.055 | – | – | 0.0622 | 0.0545 | 0.0626 | 0.078 | 0.0456 | – | 0.0505 | –
17 | V57I | 0.065 | – | 0.0657 | 0.114 | 0.0387 | 0.0609 | 0.0681 | 0.067 | – | 0.0862 | 0.0764 | 0.0547 | – | – | – | 0.0637 | – | – | –

Row | Variant | area with substrate ENAYFQS | area with substrate ENEYFQS | area with substrate ENFYFQS | area with substrate ENIYFQS | area with substrate ENNYFQS | area with substrate ENQYFQS | area with substrate ENTYFQS | area with substrate ENVYFQS | area with substrate ENDYFQS | area with substrate ENPYFQS | area with substrate ENCYFQS | area with substrate ENHYFQS | area with substrate ENRYFQS | area with substrate ENSYFQS | area with substrate ENWYFQS | area with substrate ENGYFQS | area with substrate ENKYFQS | area with substrate ENYYFQS | area with substrate ENMYFQS
18 | Q74P | 0.0432 | – | – | – | 0.0616 | 0.0582 | – | – | – | – | – | 0.0604 | – | – | – | 0.0647 | 0.0552 | – | 0.0858
19 | Q74I | 0.0724 | 0.0509 | – | – | 0.0559 | 0.0674 | 0.062 | 0.0602 | 0.0877 | – | – | 0.0793 | – | – | – | – | – | – | –
20 | N45G | 0.058 | – | 0.0653 | 0.0936 | – | 0.0445 | 0.0497 | 0.0711 | 0.0614 | – | 0.0556 | 0.0576 | – | – | 0.0382 | 0.0498 | 0.0529 | 0.0433 | 0.0632
21 | Q59H | 0.0626 | 0.0632 | 0.0635 | – | 0.078 | 0.0631 | 0.0646 | – | 0.0642 | – | 0.0681 | 0.0538 | – | 0.0663 | – | 0.0673 | – | – | –
22 | Q59R | 0.0419 | 0.0568 | 0.0953 | 0.116 | 0.0608 | 0.0624 | – | – | – | – | – | – | 0.047 | 0.0595 | – | – | 0.0548 | – | –
23 | F38V | 0.0578 | 0.058 | – | – | – | 0.0608 | 0.0716 | – | – | 0.0566 | – | – | 0.0298 | 0.0798 | – | 0.0768 | – | – | 0.0399
24 | H76F | 0.061 | 0.0637 | – | 0.104 | 0.0568 | – | 0.0568 | 0.0761 | – | – | – | 0.0615 | – | 0.0714 | – | 0.0527 | – | 0.0565 | 0.0603
25 | H76T | 0.0611 | 0.0715 | – | 0.069 | – | 0.0868 | 0.0566 | – | – | – | – | 0.0558 | – | 0.0622 | – | – | 0.0573 | – | –
26 | Q75D | 0.0647 | 0.0405 | 0.0535 | 0.064 | 0.0562 | 0.0695 | – | 0.0629 | – | 0.0643 | 0.0529 | – | 0.0714 | 0.0812 | – | – | – | – | –
27 | V67G | 0.0555 | 0.0569 | 0.0069 | 0.0736 | 0.0315 | 0.0456 | 0.0624 | – | 0.0457 | – | 0.0328 | 0.0481 | – | 0.033 | – | 0.0407 | – | – | 0.0519
28 | G28Y | 0.0723 | 0.06 | – | 0.0816 | 0.0608 | 0.0652 | – | 0.0629 | 0.0546 | 0.0726 | 0.0564 | 0.0584 | 0.048 | 0.0704 | – | 0.0478 | 0.0503 | – | –
29 | F65I | 0.0461 | 0.0913 | 0.0572 | 0.0784 | 0.0584 | 0.0591 | – | 0.0645 | 0.0335 | 0.077 | – | – | – | 0.0488 | – | – | 0.0758 | 0.078 | –
30 | F65Q | 0.0647 | 0.0515 | – | – | – | – | – | – | – | 0.0701 | – | – | – | 0.0391 | – | – | – | – | 0.0673
31 | F65P | 0.0433 | 0.0458 | – | 0.045 | 0.0575 | 0.0505 | – | 0.0347 | – | 0.0417 | 0.0431 | 0.049 | 0.0464 | 0.0374 | 0.0242 | 0.0588 | – | 0.037 | 0.0709
32 | I15G | 0.047 | 0.0679 | 0.0484 | – | 0.0485 | 0.0516 | 0.0525 | 0.0613 | 0.0676 | 0.0634 | 0.0475 | 0.0608 | 0.0537 | – | – | – | – | 0.0618 | 0.0592
33 | I85A | 0.0557 | 0.0621 | 0.112 | – | 0.0665 | – | – | 0.0626 | – | 0.0592 | – | – | – | 0.0168 | – | – | – | – | –
34 | I85H | 0.0259 | 0.0407 | 0.0339 | 0.0569 | 0.047 | – | – | – | 0.0487 | – | 0.0614 | 0.0579 | 0.0445 | 0.0617 | – | – | – | 0.0425 | 0.0588
